Where two headings read alike, the source gives them in different places.
Test system: Clostridium perfringens (9 isolated strains)
Format: cell-based

Compound	Cumulation percent of MIC (MIC 0.39 μg/ml)	Cumulation percent of MIC (MIC 0.78 μg/ml)	Cumulation percent of MIC (MIC 100 μg/ml)
CN(C)[C@@H]1C(=O)C(C(N)=O)=C(O)[C@@]2(O)C(=O)C3=C(O)c4c(O)cccc4[C@@](C)(O)[C@H]3C[C@@H]12 [R, Tetracycline]	22%	33%	–
CC1=C(C(=O)O)N2C(=O)[C@@H](NC(=O)[C@H](N)c3ccccc3)[C@H]2SC1 [S, Cefalexin]	–	–	100%

— US4886667A, “External preparation composition” (priority 1985, dated 1989)
